Laboratory results taken from the supplement of paper PMC3334620.
In all, about 33,000 sequences were measured (“E-score (-0.5 to 0.5)”: median about -0.053, highest 2% from about 0.37 on). The list shows a part of the results.

Target: Hap1 (UniProt P0CE41)
Experiment: PBM E-score (8-mer binding enrichment) (E-score (-0.5 to 0.5)); higher = stronger / more preferred TF binding; most listed sequences are background and not binding sites
Settings: protein concentration: 200 nM; construct: GST-DNA-binding domain
Outline: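 Yeast transcription factors, full-length or as DNA-binding domains, were expressed with a GST tag using PURExpress in vitro transcription/translation. At about 100-200 nM they were applied to universal all-10-mer Agilent arrays, double-stranded by primer extension on fresh or once-stripped slides. Fluorescent anti-GST detected bound protein, and masliner normalised the scans. E-scores for ungapped eight-base words, pooled with reverse complements, came from the Universal PBM Analysis Suite.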

Sequence of UniProt P0CE41 (P0CE41 whole entry): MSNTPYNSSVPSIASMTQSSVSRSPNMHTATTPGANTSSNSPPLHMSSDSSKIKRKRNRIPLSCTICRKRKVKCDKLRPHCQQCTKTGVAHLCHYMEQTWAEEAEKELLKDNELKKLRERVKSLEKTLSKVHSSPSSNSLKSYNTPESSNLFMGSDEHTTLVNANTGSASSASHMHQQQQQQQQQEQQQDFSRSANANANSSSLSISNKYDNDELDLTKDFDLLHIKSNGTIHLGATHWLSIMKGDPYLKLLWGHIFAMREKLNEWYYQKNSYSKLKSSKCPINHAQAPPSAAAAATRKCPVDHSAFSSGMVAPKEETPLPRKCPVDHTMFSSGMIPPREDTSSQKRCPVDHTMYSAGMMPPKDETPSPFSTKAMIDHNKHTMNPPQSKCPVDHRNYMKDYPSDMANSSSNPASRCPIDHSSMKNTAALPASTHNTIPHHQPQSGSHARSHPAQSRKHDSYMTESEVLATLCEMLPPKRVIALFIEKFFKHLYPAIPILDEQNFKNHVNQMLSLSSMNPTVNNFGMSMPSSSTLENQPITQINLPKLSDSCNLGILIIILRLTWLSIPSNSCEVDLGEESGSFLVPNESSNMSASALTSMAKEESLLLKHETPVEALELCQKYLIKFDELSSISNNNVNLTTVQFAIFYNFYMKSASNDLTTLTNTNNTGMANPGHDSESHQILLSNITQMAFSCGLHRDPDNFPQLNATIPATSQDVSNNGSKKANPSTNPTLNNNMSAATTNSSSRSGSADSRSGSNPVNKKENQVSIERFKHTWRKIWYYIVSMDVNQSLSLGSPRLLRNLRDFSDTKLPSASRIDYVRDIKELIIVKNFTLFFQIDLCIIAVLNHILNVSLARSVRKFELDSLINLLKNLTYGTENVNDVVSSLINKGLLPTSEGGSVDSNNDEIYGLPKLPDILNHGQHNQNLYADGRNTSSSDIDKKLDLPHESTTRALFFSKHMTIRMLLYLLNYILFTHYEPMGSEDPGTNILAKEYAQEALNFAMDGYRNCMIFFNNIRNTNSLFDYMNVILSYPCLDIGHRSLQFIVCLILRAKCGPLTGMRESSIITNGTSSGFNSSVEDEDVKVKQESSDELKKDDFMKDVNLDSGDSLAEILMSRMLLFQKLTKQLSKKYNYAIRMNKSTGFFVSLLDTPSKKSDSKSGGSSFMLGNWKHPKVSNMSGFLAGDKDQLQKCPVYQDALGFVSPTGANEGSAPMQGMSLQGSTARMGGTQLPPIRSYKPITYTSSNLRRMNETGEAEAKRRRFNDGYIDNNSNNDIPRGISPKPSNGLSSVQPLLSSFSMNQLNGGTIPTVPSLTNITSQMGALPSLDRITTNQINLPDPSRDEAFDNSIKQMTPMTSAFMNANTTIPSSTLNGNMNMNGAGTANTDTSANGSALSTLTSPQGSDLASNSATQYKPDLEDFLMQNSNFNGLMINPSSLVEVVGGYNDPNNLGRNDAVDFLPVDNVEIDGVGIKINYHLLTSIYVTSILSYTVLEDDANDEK

Sequence	PBM E-score
AAGTGCAT	-0.149
AGGCTCAT	-0.159
ACCAGAAA	-0.0507
CGAGATAG	-0.0743
TAATCCGA	0.346
CTTAAAAG	-0.193
ATTCGCAG	-0.0493
ACAAGGAG	0.0103
AAGTTAGA	-0.0271
ACAAGATG	-0.183
AAATTGGC	-0.103
AACGGCTG	0.0402
CCATACAC	0.028
AGCGCGAG	-0.00772
AAGCCACG	0.046
GCACGTCA	-0.132
CCTACAAC	0.0727
GCCACACC	-0.115
ATCACGTA	-0.284
ATTTGTAG	-0.172
AGAGCGAT	0.0667
ATCTCAGG	-0.0639
AGCCAACA	-0.189
ACCAAAGC	0.0386
AGGGTGGG	-0.06

Sequence	PBM E-score
ACGCGTGC	0.0518
CATGTTAG	-0.318
ATGATTTG	-0.153
AGCCGGCA	0.334
AAGCGCCT	0.0872
GAGGGCCC	-0.0221
CACTTTGA	-0.135
CGAATTTA	0.0847
ACCCCTGC	-0.214
GCAATGTA	-0.155
GCATTGGC	-0.311
TAGGCATA	-0.153
ATTGGATC	-0.0945
CGGGAGGC	0.00156
TGGTACAA	-0.376
ACTAATCC	0.249
TATTATGA	-0.0876
GCCTGCCC	0.0521
AACCGCGG	0.323
CTGAGTTA	-0.101
CAAAGTTG	-0.203
AAGAACAT	-0.0362
CACATCGA	-0.25
AAGGGGAT	0.0838
ATATTCGC	0.054

Sequence	PBM E-score
GTCCGAGA	0.437
AACTCACT	-0.289
CGGCTAGC	0.0611
TCCCCGCA	0.303
GGCCAAAC	0.0983
CATTGGCA	-0.165
AGTCTTGG	-0.14
CTGAATAC	-0.181
TCATGCAA	-0.125
CAGAAAAG	-0.112
AAATCTCC	0.284
AAGTCGAT	-0.0902
CAGATAGG	-0.142
AGCGATAC	0.065
ACGCGCAG	-0.272
GAAATCGC	0.196
AACTGTTC	0.212
CCCCCTAG	-0.21
AATCCAGC	0.00423
GATACCCC	0.197
ACTCATCT	-0.23
CTGGAGAA	-0.196
CAATTCGG	0.267
AGCCCCAA	-0.311
CCACACTA	-0.0143

Sequence	PBM E-score
CCTATGTC	-0.0218
CCCATGAC	-0.092
AAGGTATT	0.0721
AAAACGTT	-0.0584
ACCGGATA	0.359
CAATAGTC	-0.0523
GGCAGGCA	-0.135
GTGGACTA	-0.0056
CCTCAAGC	-0.0575
AAGCGGTG	-0.0488
ACGCGCCT	0.0003
GTGCGGGA	0.153
CAAATAAA	0.0232
AGTGCGCG	0.0751
GTGATCAA	-0.164
CTAATGAG	-0.0935
ATGTTACC	0.16
CCGCACGA	0.111
ATAGCACG	-0.142
CTGTAGGA	-0.126
AAGAGGCG	-0.0937
AGAGCCAC	-0.18
AAGCACTT	-0.132
GCCTAGCC	-0.0543
CGTGACCA	-0.142

Sequence	PBM E-score
AGCTCATA	-0.0177
ACACAACT	-0.245
AGCATTGA	-0.364
AGGGAGCA	-0.162
TTCGTAAA	-0.199
GCGAGCCC	0.064
AATAGTCG	0.0241
CGGTAACA	0.305
CCTAGATA	-0.263
GCCCGTGA	0.175
CTGGCGTC	-0.264
CACCCGAC	0.277
ATTCCCTA	0.0585
AAGCGCCA	-0.2
CCTTTTCA	-0.184
AGTCCAAA	-0.119
ACTTCAAT	-0.00268
ATTGTTGC	-0.248
CCAAAACG	-0.0849
TACACCAA	-0.213
CCACAGGA	-0.058
AAGAGCCC	-0.0136
TCGCAGAA	-0.138
AGGCCACT	-0.269
AATAGTCT	-0.174

Sequence	PBM E-score
ATGTCGGC	0.135
TACCAAGA	-0.253
CCCCAGCA	-0.136
GCAGTTGA	-0.0785
AACTGCCC	-0.0924
ACAGTTTC	0.0595
ACGCGCGT	0.0252
AAAGGGCT	-0.229
AGCCTCGG	0.281
TATTATAA	-0.0986
AGATGTCA	-0.086
ACGTACAC	-0.181
GGTTATGA	-0.152
AAGCTCCC	-0.184
CAGGCTCA	-0.294
GGTGATCA	-0.174
ACGGAGTA	0.228
AGACATTG	-0.184
TACTGAAA	-0.0602
GGCTAAGA	-0.076
AGCGCCGG	0.353
AACCAGTT	-0.058
CGTACACC	0.146
GCCCCGAC	0.252
AGCCTGAT	-0.187

Sequence	PBM E-score
GGCGTCGA	0.0569
ATACGCAC	0.125
ATCGTCCA	-0.0714
TGTGGGAA	-0.247
CCGACCTC	0.247
CTCAGACA	-0.275
AATCATTG	-0.315
ACGCCGTC	0.158
ACTAATGC	0.0692
AAGAACTG	-0.108
ACGTGCGG	0.0936
CTCTTCTA	-0.0379
ATATCCTA	-0.0242
GGATTTAC	0.415
CCCCACGG	0.22
GAATCTCA	-0.124
CTCAGATC	-0.243
GAAGGTAA	0.00731
GCTACATA	-0.0691
CCACGACC	-0.162
AGCTACTC	-0.182
AAAATGGG	-0.0355
